Data on 28 compounds can be found in the antibiotic and cytotoxicity screens of Wong et al. (2023).

SMILES strings stand for the structures. This is one part of the list.

The test system of one experiment is HSkMC. Put plainly: cytotoxicity call (relative viability < 0.9). As to conditions: 10 µM.
A further experiment has as its system HepG2. In words: cytotoxicity call (relative viability < 0.9). As to conditions: 10 µM.
A further experiment has as its system S. aureus RN4220. Put plainly: growth inhibition call (relative growth <= 0.2). As to conditions: 50 µM.

As to `O=c1c(O)c(-c2ccc(O)c(O)c2)oc2c(O[C@@H]3O[C@H](CO)[C@H](O)[C@@H](O)[C@H]3O)c(O)cc(O)c12`, the cytotoxicity call in the experiment with HSkMC is “inactive”. Moreover, in the experiment on HepG2, the cytotoxicity call was “active”. For the same compound, the growth inhibition call in the experiment with S. aureus RN4220 was “inactive”.

Consider `CCC(=O)N1C[C@]2(C1)CN([C@H](CO)c1c2c2ccc(cc2n1C)OC)S(=O)(=O)C`, for which the cytotoxicity call with HSkMC and in the experiment with HepG2 was “inactive” in each case. The growth inhibition call in the experiment with S. aureus RN4220 was “inactive”.

Take `C[C@@H]1O[C@@H](O[C@H]2[C@@H](Oc3cc(O)c4c(c3)O[C@H](c3ccc(O)cc3)CC4=O)O[C@H](CO)[C@@H](O)[C@@H]2O)[C@H](O)[C@H](O)[C@H]1O`: the cytotoxicity call with HSkMC and with HepG2 was “inactive” each time. In addition, the growth inhibition call in the experiment with S. aureus RN4220 was “inactive”.

Regarding `COc1ccc(NC(=O)N(C)C[C@H]2OCCCC[C@@H](C)Oc3ccc(NC(=O)c4ccncc4)cc3C(=O)N([C@H](C)CO)C[C@H]2C)cc1`, the cytotoxicity call in the experiment on HSkMC and in the experiment on HepG2 was “inactive” in each case. The growth inhibition call with S. aureus RN4220 was “inactive”.

With `C[C@@H]1CN([C@H](C)CO)C(=O)c2cc(NC(=O)c3ccncc3)ccc2O[C@H]1CN(C)S(=O)(=O)c1cn(C)cn1`, the cytotoxicity call in the experiment with HSkMC and in the experiment on HepG2 was “inactive” each time. For the same compound, in the experiment on S. aureus RN4220, the growth inhibition call was “inactive”.

As to `CO[C@@H]1[C@H](O[P@@](=O)(S)OC[C@H]2O[C@@H](n3cnc4c(N)ncnc43)C[C@@H]2O)[C@@H](CO)O[C@H]1n1ccc(=O)[nH]c1=O`, the cytotoxicity call in the experiment with HSkMC and in the experiment on HepG2 was “active” throughout. Moreover, the growth inhibition call in the experiment with S. aureus RN4220 is “inactive”.

In the case of `Cc1noc(C)c1S(=O)(=O)N(C)C[C@@H]1Oc2c(NC(=O)C3CC3)cccc2C(=O)N([C@@H](C)CO)C[C@@H]1C`, the cytotoxicity call with HSkMC and in the experiment on HepG2 was “inactive” in each case. Also, in the experiment with S. aureus RN4220, the growth inhibition call was “inactive”.

On to `COc1ccc2c3c(n(c2c1)C)[C@@H](CO)N(C[C@]13CCN(CC1)Cc1cccc(c1)F)C(=O)Nc1ccc(cc1)F`, for which the cytotoxicity call with HSkMC and in the experiment with HepG2 was “inactive” in each case. The growth inhibition call in the experiment on S. aureus RN4220 is “inactive”.

`Cc1ccc(S(=O)(=O)N(C)C[C@H]2OCCCC[C@H](C)Oc3ccc(NC(=O)CCC(F)(F)F)cc3C(=O)N([C@H](C)CO)C[C@@H]2C)cc1`: the cytotoxicity call with HSkMC and in the experiment on HepG2 was “inactive” throughout. The growth inhibition call with S. aureus RN4220 is “inactive”.

On to `Cc1ccc(S(=O)(=O)N(C)C[C@@H]2Oc3ccc(NC(=O)C4CC4)cc3CC(=O)N([C@H](C)CO)C[C@@H]2C)cc1`, for which the cytotoxicity call in the experiment with HSkMC and in the experiment with HepG2 was “inactive” each time. In the experiment with S. aureus RN4220, the growth inhibition call was “inactive”.

Regarding `Cc1cc(C(=O)NN)n(C(C)(C)C)n1`, the cytotoxicity call in the experiment on HSkMC and in the experiment with HepG2 was “inactive” throughout. The growth inhibition call in the experiment with S. aureus RN4220 is “inactive”.

Take `CO/N=[N+](\[O-])N(C)C[C@@H](C)O`: the cytotoxicity call with HSkMC and with HepG2 was “inactive” each time. The growth inhibition call in the experiment on S. aureus RN4220 was “inactive”.

Turning to `C[C@@H]1CN([C@@H](C)CO)C(=O)c2cc(-c3ccc(C(=O)N(C)C)cc3)cnc2O[C@@H]1CN(C)C(=O)c1ccncc1`, the cytotoxicity call in the experiment with HSkMC and in the experiment with HepG2 was “inactive” in each case. The growth inhibition call with S. aureus RN4220 is “inactive”.

As for `Nc1ncnc(N[C@H]2CCS(=O)(=O)C2)c1[N+](=O)[O-]`, the cytotoxicity call in the experiment with HSkMC and in the experiment on HepG2 was “inactive” throughout. For the same compound, the growth inhibition call in the experiment on S. aureus RN4220 is “inactive”.

For the compound `Oc1cc(O)c2c(c1)OC(c1cc(O)c(O)c(O)c1)C(O)C2` (centres undefined), the cytotoxicity call in the experiment with HSkMC and in the experiment with HepG2 was “inactive” throughout. Also, the growth inhibition call with S. aureus RN4220 is “inactive”.

Regarding `C[C@H]1[C@H]([Si](C)(C)F)[C@@H](CCO)O[C@]12C(=O)N(Cc1cccc(N3C(=O)c4ccccc4Oc4ccccc43)c1)c1ccccc12`, the cytotoxicity call with HSkMC and in the experiment with HepG2 was “inactive” each time. In addition, in the experiment with S. aureus RN4220, the growth inhibition call was “inactive”.

`O=C(C[C@@H]1C[C@@H]2c3cc(NS(=O)(=O)c4ccc(F)cc4)ccc3O[C@@H]2[C@H](CO)O1)NCc1cccc(F)c1`: the cytotoxicity call in the experiment on HSkMC and in the experiment on HepG2 was “inactive” throughout. For the same compound, the growth inhibition call in the experiment on S. aureus RN4220 was “inactive”.

For `CCOC(=O)CCCCCC(=O)Nc1ccc2c(c1)C(=O)N([C@@H](C)CO)C[C@@H](C)[C@H](CN(C)C(=O)Nc1ccccc1)OCCCC[C@H](C)O2`, the cytotoxicity call with HSkMC and with HepG2 was “inactive” throughout. The growth inhibition call in the experiment on S. aureus RN4220 was “inactive”.

Turning to `Cc1noc(C)c1NC(=O)Nc1ccc2c(c1)C(=O)N([C@H](C)CO)C[C@@H](C)[C@H](CN(C)Cc1ccc(Cl)c(Cl)c1)OCCCC[C@@H](C)O2`, the cytotoxicity call in the experiment on HSkMC and in the experiment on HepG2 was “inactive” each time. Also, the growth inhibition call in the experiment with S. aureus RN4220 was “inactive”.

As to `C[C@@H]1CCCCO[C@@H](CN(C)C(=O)Nc2ccc3c(c2)OCO3)[C@H](C)CN([C@@H](C)CO)C(=O)c2cc(NC(=O)Nc3cccc4ccccc34)ccc2O1`, the cytotoxicity call in the experiment with HSkMC and with HepG2 was “inactive” in each case. Also, the growth inhibition call in the experiment with S. aureus RN4220 was “inactive”.

As to `CC(/C=C/C(=O)NO)=C\c1ccccc1OCc1cn(CC(=O)N2CCN(c3ccccc3)CC2)nn1`, the cytotoxicity call in the experiment with HSkMC and in the experiment with HepG2 was “inactive” throughout. In addition, the growth inhibition call in the experiment with S. aureus RN4220 was “inactive”.

With `CN1C(=O)c2cc(NC(=O)c3ccc(C(F)(F)F)cc3)ccc2OC[C@@H]2O[C@H](CC(=O)NC3Cc4ccccc4C3)CC[C@H]21`, the cytotoxicity call in the experiment with HSkMC and with HepG2 was “inactive” throughout. In the experiment with S. aureus RN4220, the growth inhibition call was “inactive”.

Turning to `O=C(C1CCCCC1)N1CC(=O)N2CCc3ccccc3C2C1` (centres undefined), the cytotoxicity call in the experiment with HSkMC and in the experiment on HepG2 was “inactive” throughout. For the same compound, the growth inhibition call in the experiment with S. aureus RN4220 was “inactive”.

Turning to `C[C@H]1CN([C@@H](C)CO)C(=O)c2cccc(NC(=O)Nc3cccc4ccccc34)c2O[C@H]1CN(C)Cc1ccc(C(=O)O)cc1`, the cytotoxicity call with HSkMC and in the experiment on HepG2 was “inactive” in each case. In the experiment on S. aureus RN4220, the growth inhibition call was “inactive”.

Turning to `Cc1noc(C)c1S(=O)(=O)Nc1ccc2c(c1)C(=O)N([C@H](C)CO)C[C@@H](C)[C@H](CN(C)Cc1ccc3c(c1)OCO3)O2`, the cytotoxicity call in the experiment on HSkMC (human skeletal muscle cells) and in the experiment on HepG2 was “inactive” throughout. Further, in the experiment with S. aureus RN4220, the growth inhibition call is “inactive”.

Consider `C[C@@H]1ON(c2cccc(C(=O)OC(C)(C)C)c2)[C@H](c2ccc(Br)cc2)[C@H]1C(=O)N1C(=O)OC[C@H]1Cc1ccccc1`, for which the cytotoxicity call in the experiment with HSkMC and in the experiment with HepG2 was “inactive” in each case. The growth inhibition call in the experiment with S. aureus RN4220 was “inactive”.

As to `CC(C)CN1C(=O)C[C@@H](N2CCOCC2)C1=O`, the cytotoxicity call with HSkMC and in the experiment on HepG2 was “inactive” throughout. Moreover, in the experiment with S. aureus RN4220, the growth inhibition call is “inactive”.

For the compound `CC(C)C(N)C(=O)O` (centres undefined), the cytotoxicity call in the experiment with HSkMC and in the experiment with HepG2 was “inactive” throughout. Also, the growth inhibition call with S. aureus RN4220 is “inactive”.
